Article PMC6919601, “Identification of Plasmodium dipeptidyl aminopeptidase allosteric inhibitors by high throughput screening” (PLoS ONE, 2019)
Values joined by “and” are separate entries in the source; they are usually repeats but may differ in a detail not shown here. Equal entries are not always repeated. The campaign covered roughly 110,000 compounds. About 230 (0.21%) showed an effect of 50% or more. Some of the results follow.

Target: DPAP1 (Plasmodium falciparum, UniProt Q8IIJ9)
Assay: primary screen, percent inhibition; read by cleavage of a fluorogenic dipeptide substrate; higher = more effect of the substance
Parameters: species or system P. falciparum D10 trophozoite lysates; single well
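Also: 30 min substrate incubation versus DMSO and 10 µM JCP410 controls.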

DPAP1, sequence (Q8IIJ9 whole entry, looked up): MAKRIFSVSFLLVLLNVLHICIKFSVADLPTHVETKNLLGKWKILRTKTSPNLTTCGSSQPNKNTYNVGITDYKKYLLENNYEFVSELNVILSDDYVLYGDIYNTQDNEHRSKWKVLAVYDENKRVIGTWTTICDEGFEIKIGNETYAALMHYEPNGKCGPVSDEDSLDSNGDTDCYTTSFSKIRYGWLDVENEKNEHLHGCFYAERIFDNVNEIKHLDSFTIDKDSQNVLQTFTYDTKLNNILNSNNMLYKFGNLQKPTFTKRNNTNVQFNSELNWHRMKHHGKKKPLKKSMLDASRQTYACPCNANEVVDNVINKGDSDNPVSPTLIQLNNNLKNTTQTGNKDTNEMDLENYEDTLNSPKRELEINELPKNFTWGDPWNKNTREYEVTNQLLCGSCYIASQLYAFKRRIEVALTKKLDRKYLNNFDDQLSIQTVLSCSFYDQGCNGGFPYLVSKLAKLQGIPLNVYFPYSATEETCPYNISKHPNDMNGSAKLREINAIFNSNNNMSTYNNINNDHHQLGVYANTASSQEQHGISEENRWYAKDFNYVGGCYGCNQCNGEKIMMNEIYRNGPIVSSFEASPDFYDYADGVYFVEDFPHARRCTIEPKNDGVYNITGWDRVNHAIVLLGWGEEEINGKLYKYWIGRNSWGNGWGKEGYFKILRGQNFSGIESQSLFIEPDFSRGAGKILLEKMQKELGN

| SMILES | % Inhibition @ 10 uM |
| --- | --- |
| COc1ccc(S(=O)(=O)n2cnc3cc(C)c(C)cc32)cc1 | -0.142% |
| Cn1c(SCC(=O)NCc2ccccc2)nc2c(c1=O)SCC2 | 0.205% |
| Cn1c(=O)c2c(nc(N3CCCCC3)n2CC(=O)c2ccccc2)n(C)c1=O | -0.173% |
| c1ccc2c(Oc3ncnc4sc5c(c34)CCCC5)cccc2c1 | -4.08% |
| Cc1cc(-c2ccccc2)n2nc(-c3ccc(Cl)cc3)cc2n1 | 3.16% |
| CCOC(=O)c1c(NC(=O)CSc2nnc(C(F)(F)F)n2N)sc2c1CCC2 | -8.85% |
| CN(CC(=O)Nc1nccs1)S(=O)(=O)c1cccc2nsnc12 | -3.46% |
| CC(=O)N(C1=C(N2CCNCC2)C(=O)c2ccccc2C1=O)c1ccc(Br)cc1 | 36.5% |
| CC(C)C[C@H](NC(=O)c1ccc(NC(=O)OCCCc2ccncc2)cc1)C(=O)NCC#N | -9.15% |
| Cc1ccccc1Cn1cc(NC(=O)c2cc(-c3ccc(F)cc3)on2)cn1 | 0.723% |
| Cc1ccc(Cn2c(CN3CCN(C)CC3)nc3c2c(=O)n(C)c(=O)n3C)cc1 | -0.499% |
| COc1ccc(Cl)cc1C(=O)Nc1ccc2c(c1)C(=O)N(CC(C)C)C2=O | -2.32% |
| CN(Cc1ccccc1)C(=O)c1ccc([N+](=O)[O-])o1 | 2.6% |
| Clc1cccc(CSc2nc3cccnc3[nH]2)c1 | 1.93% |
| Cc1nn(-c2cccc(Cl)c2)c2c1C(c1ccccc1F)C(C#N)=C(N)O2 (stereo not shown) | -2.45% |
| N#C/C(=C\c1ccccc1[N+](=O)[O-])c1nc(-c2ccc(Br)cc2)cs1 | 4.33% |
| COc1cc(Oc2ccccc2)nc(N)n1 | 5.43% |
| O=S(c1c(O)nc2ccccc2c1O)C1CCCCC1 (stereo not shown) | 2.32% |
| Cc1c(Cl)ccc(S(=O)(=O)NCCOC23CC4CC(CC(C4)C2)C3)c1Cl | 2.18% |
| Cn1ncc2c(NCCc3ccc(S(N)(=O)=O)cc3)ncnc21 | 2.72% |
| CC(NC(=O)CSc1nnnn1-c1ccccc1F)C12CC3CC(CC(C3)C1)C2 (stereo not shown) | 4.31% |
| COCCCn1c(=O)c2sccc2n2c(CCCC(=O)NCCc3ccc(Cl)cc3)nnc12 | -5.35% |
| CC(=O)c1cccc(NC2=NS(=O)(=O)c3ccccc32)c1 | -1.26% |
| O=C1CSCC2=C1C(=O)CC1c3ccccc3CCN21 (stereo not shown) | -2.8% |
| CC(=O)c1ccc(NC(=O)C2CC=CCC2C(=O)OCC2CCCO2)cc1 (stereo not shown) | -1.91% |

| SMILES | % Inhibition @ 10 uM |
| --- | --- |
| COc1ccc(OC)c(C2C=C(c3cccc(Br)c3)Nc3ncnn32)c1 (stereo not shown) | -7.08% |
| Nc1ncnc2[nH]c(SCc3nc4ccccc4n3Cc3ccccc3)nc12 | -4.02% |
| Cc1nnc2c(N3CCC(Cc4ccccc4)CC3)nc3ccccc3n12 | -3.41% |
| COc1ccc(OC)c(NC(=O)c2ccccc2C(=O)O)c1 | -6.67% |
| O=C(Nc1ccc(Cl)cc1C(=O)N1CCCC1)c1ccco1 | 3.8% |
| COc1ccc(-n2c(Cc3cccn3C)nnc2SCC(=O)NCCc2ccccc2)cc1 | 1.15% |
| Clc1ccc(-c2nc3sc4nc5ccccc5nc4n3n2)c(Cl)c1 | 5.5% |
| CN(CCC#N)C(=O)c1noc2c1COc1ccccc1-2 | 1.68% |
| CC(C)(C)c1nnc(NC(=O)c2ccccc2Cl)s1 | -1.19% |
| COc1cccc(C(=O)COc2ccccc2N2C(=O)c3ccccc3C2=O)c1 | -0.473% |
| Cc1nc2nc(SCC(=O)NC(C)c3ccccc3)nn2c(C)c1Cc1ccccc1 (stereo not shown) | 2.83% |
| Cc1cc(/C=C2/NC(=O)N(c3ccccc3)C2=O)c(C)n1-c1ccc2c(c1)OCO2 | -5.3% |
| CCN1CCN(Cc2ccc(F)c(F)c2)CC1 | -6.21% |
| OCCN1CCN(CC(O)c2ccc(C3CCCC3)cc2)CC1 (stereo not shown) | -1.91% |
| O=c1n(-c2ccccc2)c(=O)n2n1C1C3C4C5C3C2C5C41 (stereo not shown) | 0.661% |
| COc1ccc(-c2csc(/C(C#N)=C\c3ccc(C(C)C)cc3)n2)cc1 | -1.62% |
| COCCN1C(=O)/C(=C/c2ccc(O)c(OC)c2)S/C1=N\c1ccccc1 | 10.3% |
| O=C(CSc1ccc(-c2cccs2)nn1)NC1CCCCC1 | 1.68% |
| Cc1ccc(-c2nnc(N3CCN(S(=O)(=O)c4ccc(F)cc4)CC3)c3ccccc23)cc1 | -0.958% |
| O=C(NCc1ccc2c(c1)OCO2)c1noc2c1COc1ccccc1-2 | 73.5% |
| c1ccc(-n2ncc3c(NCc4ccc5c(c4)OCO5)ncnc32)cc1 | -3.56% |
| Cc1cc(C)nc(NS(=O)(=O)c2ccc(NC(=O)c3ccc(C)c(Br)c3)cc2)n1 | -3.45% |
| Cc1nc(O)nc(O)c1S(=O)(=O)N1CCC(C(N)=O)(N2CCCCC2)CC1 | 2.8% |
| Cc1c(C(=O)NCCc2ccccc2)oc2ccc3c(c12)C=CC(C)(C)O3 | -10.9% |
| NS(=O)(=O)c1ccc(CCNS(=O)(=O)c2ccc(-c3cc(C(F)(F)F)no3)s2)cc1 | 2.41% |

| SMILES | % Inhibition @ 10 uM |
| --- | --- |
| CN1CCC(N[C@H]2CCCCNC2=O)CC1 | -3.82% |
| Cc1ccc(Cn2cc(/C=C3/NC(=O)NC3=O)c3ccccc32)cc1 | 1.52% |
| CCC(=O)N(/C=C1\Sc2ccccc2C1=O)Cc1ccccc1 | 20.7% |
| O=C(Cn1ncn2nc(-c3cccs3)cc2c1=O)N1CCC(Cc2ccccc2)CC1 | 0.623% |
| Cc1nc(Cn2c(C)nc3ccccc32)cs1 | -4.58% |
| O=C(COc1cccc(Cl)c1)Nc1cccc(C(F)(F)F)c1 | 3.65% |
| COc1ccc(CCNC(=O)c2cnc(SC)nc2C)cc1OC | -1.08% |
| O=C(Nc1ccccc1)c1cc(S(=O)(=O)N2CCOCC2)cs1 | 5.31% |
| COC(=O)c1cc(-c2ccccc2)n(C)c1C | 3.3% |
| COc1ccccc1NS(=O)(=O)c1ccc(NC(=O)COc2ccc(Cl)cc2Cl)cc1 | -2.74% |
| Cc1nnc(N2CCCC(C(=O)N3CCc4ccccc4C3)C2)c2nn(-c3ccccc3)c(C)c12 (stereo not shown) | 9.35% |
| Cc1ccc(CNS(=O)(=O)c2ccc(-c3cc(C(F)(F)F)no3)s2)o1 | 5.67% |
| CCN(CC)CCNC(=O)/C(=C/c1cn(CC)c2ccccc12)NC(=O)c1ccccc1OC | -1.74% |
| CC(C)(C)NCC(=O)Nc1c2c(nc3ccccc13)N(Cc1ccccc1)CC2 | 4.15% |
| COc1cccc(OC)c1C(=O)Nc1cc(C)on1 | -5.14% |
| Cc1ccc(CNC(=O)CSc2c3c(nc4ccc(Cl)cc24)CCCC3)o1 | -8.9% |
| O=[N+]([O-])c1cccc(-c2cn3ccsc3n2)c1 | 1.66% |
| Cc1sc(NC(=O)c2ccc(Cl)cc2)c(C(N)=O)c1-c1ccccc1 | 5.24% |
| O=S(=O)(c1ccc2oc3ccc(S(=O)(=O)N4CCCCCC4)cc3c2c1)N1CCCCCC1 | 1.94% |
| COc1ccc(-c2cc(C(F)(F)F)nc(SCC(=O)Nc3cc(C)on3)n2)cc1 | -2.09% |
| CN1C(=O)NC(=O)/C(=C\C=C\c2ccco2)C1=O | -2.97% and 0.587% |
| Cc1ccc(S(=O)(=O)N(CC(=O)N(C)Cc2ccccc2)c2ccccc2)cc1 | -2.44% |
| COc1cc(NCc2ccccc2C(F)(F)F)cc(OC)c1OC | 1.57% |
| Cc1ccc(-n2nc(C)c3c(C(=O)NCc4cccnc4)cc(C)nc32)cc1 | 2.19% |
| CCC(C)NC(=O)Cn1nc(-c2ccccc2)ccc1=O (stereo not shown) | -3.22% |

| SMILES | % Inhibition @ 10 uM |
| --- | --- |
| COC(=O)c1sccc1NC(=O)CC#N | 0.351% |
| CC(C)CNC(=O)C(=O)NCc1ccc(Cl)cc1 | 2.94% |
| C=CCNS(=O)(=O)c1cccc2nonc12 | 0.611% |
| CCc1ccc(-n2nc(C)c3c(C)cc(O)nc32)cc1 | 3.36% |
| CCOC(=O)N1CCC(NC(=O)Cn2ncn3c(cc4sc(CC)cc43)c2=O)CC1 | -7.22% |
| O=S(=O)(Nc1ccc2c(c1)OCO2)c1ccc2c(c1)OCCO2 | -5.6% |
| COc1cc(C=O)cc(OC)c1OCc1ccc(F)cc1 | -6.84% |
| COc1ccc(C(=O)Nc2ccc(S(=O)(=O)N3CCCCCC3)cc2)cc1 | -1.52% |
| COc1cc(Br)cc(/C=C2/SC(=O)N(C(C)C)C2=O)c1O | 5.39% |
| COc1ccc(CNC(=O)C2CCN(S(=O)(=O)c3cccc4nonc34)CC2)cc1 | 8.91% |
| COc1ccc(CC(=O)Nc2ccc(F)cc2F)cc1 | -1.25% |
| Cc1ccccc1-n1c(C)nc2sccc2c1=O | -7.43% |
| CCc1ccccc1NC(=O)CN1CCCCC1 | -1.55% |
| NC(=O)CCSc1ccc(Cl)cc1 | 3.82% |
| Cc1nc(Oc2ccccc2)cc(-n2ncc(C#N)c2N)n1 | -2.77% |
| Cc1ccc(C(=O)N/C(=C/c2ccccc2)C(=O)NC(C)C(=O)O)cc1 (stereo not shown) | -1.52% |
| Cc1ccc2c(C(=O)CNc3nccs3)c(C)[nH]c2c1 | 3.47% |
| Cc1ccc(-c2cc(C(=O)NCc3ccc4c(c3)OCO4)c3ccccc3n2)o1 | -3.72% |
| O=C(Nc1nn2c(-c3ccco3)nnc2s1)c1ccc(F)cc1 | 0.00665% |
| Cc1cccc2c(O)c(NC(=O)N3CCC(C(N)=O)CC3)cnc12 | -4.91% |
| Cc1cccc(S(=O)(=O)Nc2ccc(-c3cn4ccsc4n3)cc2)c1 | -4.65% |
| Oc1ccc(CN2CCN(c3cccc(C(F)(F)F)c3)CC2)cc1 | -3.56% |
| CC1CCCC(C)N1CCNC(=O)C1CCN(S(=O)(=O)N2CCCCC2)CC1 (stereo not shown) | -10.9% |
| COc1ccc(CNC2CCSC2)c(OC)c1 (stereo not shown) | 2.99% |
| COc1ccc(C)cc1-n1nnc(-c2nsc(NC(=O)c3ccc(C)c(C)c3)n2)c1C | -0.656% |
